Results as given in PubChem BioAssay AID488969 (Vanderbilt High Throughput Screening Facility, 2010).
Over roughly 110,000 compounds, “z-score” has its median near -0.1; the highest 2% begin near 2. The list shows a part of the results. Activity calls are given as the source filed them.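 The calls were made as follows: active = z-score in the third read window above 3 or below -3; inactive = the rest.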

Target: Metabotropic glutamate receptor 8 (Rattus norvegicus) (UniProt P70579)
Experiment: mGluR8 Gi/Go-coupled signaling modulation – cell-based, rat, thallium flux, HTS, primary screen (AID 488969)
Conditions: HEK293 rat mGluR8, GIRK (G protein-gated inwardly rectifying potassium channel) thallium flux, FluoZin2; at 10 µM; stronger effect = higher value; submaximal glutamate (EC20) added with thallium

Sequence of UniProt P70579 (P70579 whole entry, looked up): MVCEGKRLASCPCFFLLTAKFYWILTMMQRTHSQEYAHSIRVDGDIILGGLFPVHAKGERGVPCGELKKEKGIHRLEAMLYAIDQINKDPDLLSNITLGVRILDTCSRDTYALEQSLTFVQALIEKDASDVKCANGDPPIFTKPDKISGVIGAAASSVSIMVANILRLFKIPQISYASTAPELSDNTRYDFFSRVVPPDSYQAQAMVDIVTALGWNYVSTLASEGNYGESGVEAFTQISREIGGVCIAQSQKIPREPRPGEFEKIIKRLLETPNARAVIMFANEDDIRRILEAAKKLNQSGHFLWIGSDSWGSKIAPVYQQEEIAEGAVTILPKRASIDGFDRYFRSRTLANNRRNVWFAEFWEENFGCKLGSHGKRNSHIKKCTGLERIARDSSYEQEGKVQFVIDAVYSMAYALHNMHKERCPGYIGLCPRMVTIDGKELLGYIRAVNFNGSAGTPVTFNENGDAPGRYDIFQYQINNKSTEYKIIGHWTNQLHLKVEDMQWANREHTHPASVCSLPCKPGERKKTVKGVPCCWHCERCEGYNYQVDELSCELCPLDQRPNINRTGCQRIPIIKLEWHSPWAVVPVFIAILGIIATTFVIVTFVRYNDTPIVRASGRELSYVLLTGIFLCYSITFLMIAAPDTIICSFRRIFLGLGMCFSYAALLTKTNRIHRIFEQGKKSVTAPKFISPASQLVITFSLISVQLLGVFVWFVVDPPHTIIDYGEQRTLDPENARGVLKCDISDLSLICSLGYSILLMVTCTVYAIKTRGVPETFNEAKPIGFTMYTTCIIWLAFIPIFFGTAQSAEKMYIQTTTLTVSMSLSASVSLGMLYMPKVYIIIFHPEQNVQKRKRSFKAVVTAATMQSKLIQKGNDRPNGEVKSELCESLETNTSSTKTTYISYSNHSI

Compound	z-score
Cc1ccc(CNC(=O)c2cn(C3CCCC3)c(=O)c3c2c2ccccc2n3C)o1	-2.41
Cn1c(=O)[nH]c(=O)c2c1nc(Br)n2CC(O)c1ccccc1 (configuration not stated)	0.0963
COc1ccc(C)cc1S(=O)(=O)Nc1cccc(Cl)c1Cl	active: 3.68
COc1ccc(/C=C/c2nc(-c3ccccc3O)n[nH]2)cc1	-0.343
CC(C)NC(=O)CCCc1cn(C)c2ccccc12	0.0315
CCn1nc(CC(=O)Nc2nnc(CC(=O)N3CCCCC3)s2)c2ccccc2c1=O	-0.638
S=c1[nH]nc2c3c4c(sc3ncn12)CCCC4	0.594
CCN(CC)c1ccc(-c2nn3c(-c4cccnc4)nnc3s2)cc1	-0.482
COC(=O)C1=CN(Cc2cccs2)C=C(C(=O)OC)C1c1cccc(OC)c1OC	0.516
S=C(NCc1ccc2c(c1)OCO2)NCc1ccc2c(c1)OCO2	0.252
Cc1nn(C)c(C(=O)Nc2cccc(CN3CCOCC3)c2)c1Br	-0.375
Cc1ccc(NC(=O)COc2cccnc2[N+](=O)[O-])cc1S(=O)(=O)N1CCCCC1	active: 4.45
O=C(CSc1ccc2nnc(-c3cccnc3)n2n1)N1CCOCC1	-0.013
CCN(CC)C(=O)C(=O)N/N=C/c1ccc(Br)cc1	0.0116
O=C(C1CC1)N1CCN(C(c2ccccc2)c2ccccc2)CC1	-0.356
S=c1[nH]nc(-c2cc(-c3ccco3)[nH]n2)n1-c1ccccc1	-0.141
CC1CCCC(C(=O)O)N1C(=O)CCSSCCC(=O)N1C(C)CCCC1C(=O)O (configuration not stated)	-0.536
Cc1cc(=O)oc(C)c1C(=O)NCCN1CCOCC1	0.00346
CCOC(=O)c1c(C)n(C)c2cc(OCCN(CC)CC)ccc12	0.358

Compound	z-score
C/C(=N\NC(=O)c1ccco1)c1ccc(NC(=O)c2cccs2)cc1	-0.261
O=C(COC(=O)CNC(=O)C1CCCCC1)Nc1ccc2ccccc2c1	-0.285
CC1CCCC(C)N1C(=O)COC(=O)c1ccc(O)cc1 (configuration not stated)	-0.19
CCOC(=O)c1cc(C#N)c(Oc2ccc(F)cc2)nc1-c1ccccc1	-0.0477
CC(/C=N\NC(=O)Cn1c(C)nc2ccccc21)=C\c1ccccc1	-0.11
CCSc1n[nH]c2nc3c(c(=O)n12)C1(CCCC1)Cc1ccccc1-3	-0.626
Cc1ccc(C(=O)Nn2c(O)c(C=C3N=c4ccccc4=N3)sc2=S)cc1	-0.326
CCCCOC(=O)Nc1nnc(/C=C/c2ccc(OC)cc2)s1	-0.231
CCOC(=O)Cn1nnnc1C(C(C)C)N(Cc1cccs1)Cc1cc2cc(C)ccc2[nH]c1=O (configuration not stated)	-0.36
Cc1noc(NS(=O)(=O)c2ccc(NC(=O)COc3ccccc3)cc2)c1C	0.309
COC(=O)/C=C1\SC(=Nc2ccccc2)NC1=O	-0.171
Clc1ccccc1-c1nnc2sc(CCc3ccccc3)nn12	active: -5.47
CCOc1ncccc1C(=O)OCC(=O)Nc1c(C)cccc1C	0.216
COc1cccc(C(=O)Nc2ccc(N(C)C)cc2)c1OC	-0.682
CC(=O)c1ccc(O)c(CO)c1	0.0351
Cc1cc2c(n1-c1ccc(Br)cc1)CC(C)(C)CC2=O	-2.23
O=c1cc(CO)occ1OCc1cccc(C(F)(F)F)c1	0.0103
O=C(Nc1ccc(Oc2cccnc2)cc1)c1cccc([N+](=O)[O-])c1	-0.409
Clc1ccc(-c2ccc(-c3nn4c(-c5ccco5)nnc4s3)o2)cc1	0.507

Compound	z-score
Cc1ccc(C2CC(c3ccccc3)=NN2C(=O)CSc2nnc(-c3ccncc3)n2C)o1 (configuration not stated)	0.45
COc1ccc(CNC(=O)C2CC(=O)N(c3ccc(OCC(=O)N4CCCCC4)cc3)C2)cc1 (configuration not stated)	0.0285
COC(=O)C1=C(C(=O)OC)C2C(C)=CC(C)=CN2C(C(=O)OC)=C1C(=O)OC (configuration not stated)	-0.46
O=C(CSc1nnc2c(Cl)cc(C(F)(F)F)cn12)Nc1ccc2c(c1)OCO2	0.195
COC(=O)c1sc2ncccc2c1OCc1ccc(Cl)cc1Cl	-0.208
CCCn1c(C(=O)OC)cc2c1ccn2-c1ccc(F)cc1	0.84
Cc1nnc(SCC(=O)N(C(C)C)C(C)C)nc1C	0.0386
Cc1ccc(S(=O)(=O)N2C(=S)SCC2(C)C)cc1	0.169
CCOC(=O)C1=C(C)Nc2nnnn2C1c1ccc(OC)c(Br)c1 (configuration not stated)	-0.463
COc1ccc(S(=O)(=O)N2CCC(=O)N2)cc1	0.154
Cc1ccc2cc(CCNC(=O)CC(C)C)c(=O)[nH]c2c1	-1.9
C=CCn1c(SCc2nc3ccccc3[nH]2)nnc1-c1ccncc1	-0.336
Cc1ccc(CNC(=O)c2ccccc2CCc2ccccc2)cc1	-0.136
O=C(c1ccccc1)c1ccc(OCCCN2CCCC2)cc1	-0.0127
COC(=O)[C@@H](NC(=O)Nc1cccc(OC)c1)C(C)C	-0.0386
COC(=O)c1sccc1NC(=O)COc1ccc(Cl)cc1Cl	-0.26
Cc1ccc(S(=O)(=O)N/N=C2/CC(c3ccccc3)Oc3ccccc32)cc1 (configuration not stated)	-0.121
CC(C)(C)c1ccc(NC(=O)NCc2ccco2)cc1	-0.0767
CCCCNC(=S)N/N=C/c1cc(C)ccc1C	1.48
